# The list shows a part of the results.
# Target: T1, OsWOX13 (Oryza sativa, UniProt Q5QMM3 1-267)
# T1 sequence: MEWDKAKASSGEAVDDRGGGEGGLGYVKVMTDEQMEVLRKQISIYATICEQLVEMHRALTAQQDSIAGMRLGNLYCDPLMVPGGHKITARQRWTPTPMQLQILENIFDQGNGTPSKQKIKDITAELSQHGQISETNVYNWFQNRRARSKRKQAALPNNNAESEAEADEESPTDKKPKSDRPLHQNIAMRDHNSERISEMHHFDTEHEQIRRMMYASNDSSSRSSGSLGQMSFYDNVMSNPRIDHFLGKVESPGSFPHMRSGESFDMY
# Test: protein-binding microarray (RPBM); PBS, 2% BSA, 51.3 ng/ul salmon testes DNA, 50 uM zinc acetate, 200 nM TF, 25 C, 1 h; high values mean tight binding
# Conditions: protein: recombinant; tags: N-terminal polyhistidine and DsRed monomer fusion (pET32a); label: CyDye5-dUTP incorporated in the synthesized complementary strand; 3' TTTTT single-stranded linker to array surface; dsDNA, one strand shown
# Method in brief: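 In PBS with 2% BSA, salmon testes DNA and 50 µM zinc acetate, 200 nM protein was incubated on a custom Agilent array at 25 °C for 1 h and then washed off. The array had been made double-stranded by primer extension with Cy5-dUTP and blocked with 2% BSA. The proteins were transcription factors fused N-terminally to polyhistidine and DsRed, expressed in E. coli BL21-CodonPlus and purified on Ni–NTA. The binding signal is per-feature fluorescence intensity (arbitrary units) from an Axon 4000B scanner.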
row,Sequence,binding signal
1,GTTCTTCAATTTCTTATCTTTCAATCCCCAAAATTTTCTTCGGAGTCACCTAGTGCAG,3560 fluorescence intensity (a.u.)
2,GCAGTAATGGAATGGATCACATTCGGTACTGTATTCGGGTCGGAGTCACCTAGTGCAG,3390 fluorescence intensity (a.u.)
3,AAAATTTTCATTCTGTTACATTGAATATTTAAACACATGCCGGAGTCACCTAGTGCAG,3390 fluorescence intensity (a.u.)
4,TTAGCTAATACTTAATTAATCACGCAGTAGTGGACCGCTTCGGAGTCACCTAGTGCAG,8570 fluorescence intensity (a.u.)
5,TCAGATAATTAAACACCCATATGTGTGTGTGCTATTTCTCCGGAGTCACCTAGTGCAG,6280 fluorescence intensity (a.u.)
6,CTCCTGTCATTTCATTAAAATTTCACTCTACCCATTCCACCGGAGTCACCTAGTGCAG,4610 fluorescence intensity (a.u.)
7,AATTATATTAATTATTTAGCCTCAACGAACATGGCACCTTCGGAGTCACCTAGTGCAG,11800 fluorescence intensity (a.u.)
8,AGTATTAATCATGTTTTATCATCTAACAACAATGAAAATACGGAGTCACCTAGTGCAG,5730 fluorescence intensity (a.u.)
9,GGGCATAATAATTATGAATTCGATTGAATTAAGAGGCTGTCGGAGTCACCTAGTGCAG,18200 fluorescence intensity (a.u.)
10,GTCAACACAATCAACCCTAATCAAGCCCATTCCCATTCACCGGAGTCACCTAGTGCAG,8120 fluorescence intensity (a.u.)
11,CCACTGACATAATGCAAAATAAGATATCATCGATGACATACGGAGTCACCTAGTGCAG,5570 fluorescence intensity (a.u.)
12,AGGGGATGATCGATTAGTTTACATTACCCTTTTGATCTCACGGAGTCACCTAGTGCAG,3510 fluorescence intensity (a.u.)
13,TGTGTCAATTACACATCCATCATTATCCATCCACCTTCCGCGGAGTCACCTAGTGCAG,28100 fluorescence intensity (a.u.)
14,TTTGAGTCTAATTATGTCATGATTTTGACAATGTGATGCTCGGAGTCACCTAGTGCAG,30100 fluorescence intensity (a.u.)
15,ACAATAACCAATCAATGAAATGAGAATGAACATCAGAAGCCGGAGTCACCTAGTGCAG,17900 fluorescence intensity (a.u.)
16,GGGGAAATTTTCACGAGGGAGAGGGAGGGGAGGGATATTTCGGAGTCACCTAGTGCAG,3860 fluorescence intensity (a.u.)
17,ATATGTACGATAATTATACGATTGCTAACAGATAGTGAATCGGAGTCACCTAGTGCAG,6930 fluorescence intensity (a.u.)
18,GGGGAGAGAGATTAATTAGGGAAGTACTCCACTCCCTCCACGGAGTCACCTAGTGCAG,5990 fluorescence intensity (a.u.)
19,AAGTTGTAAATATTGATGATTTATATAGCTTTGTTGTTGACGGAGTCACCTAGTGCAG,4630 fluorescence intensity (a.u.)
20,ATCCGGATTGAGGAGGACGTGAATTAAATTCGGTCCATAGCGGAGTCACCTAGTGCAG,3810 fluorescence intensity (a.u.)
21,TAGTCAATTTTATAGCTAATCTTATTATATACTATGTTGGCGGAGTCACCTAGTGCAG,3280 fluorescence intensity (a.u.)

row,Sequence,binding signal
1,TATCAAATTTATCCATTTGTTAATGTTGTAATAATTAAAACGGAGTCACCTAGTGCAG,6890 fluorescence intensity (a.u.)
2,ATTAACTGCAATTAGATGAGCATCTGAGGCAAGAAAGAAGCGGAGTCACCTAGTGCAG,25000 fluorescence intensity (a.u.)
3,ATCTTCAATCTTCAGTTCTGTAACCACTACACCAGCGATACGGAGTCACCTAGTGCAG,4770 fluorescence intensity (a.u.)
4,ATAAACACAATCAGATTACAGCTTCCCTGCTGTTTCGTTTCGGAGTCACCTAGTGCAG,5650 fluorescence intensity (a.u.)
5,CCCAAATTAATCATCATGTAATAGAATGATATATTCATTGCGGAGTCACCTAGTGCAG,49200 fluorescence intensity (a.u.)
6,AATAATTGAGGTTCTTTCTGGTTATGGATGCCTCATTACGCGGAGTCACCTAGTGCAG,23700 fluorescence intensity (a.u.)
7,GGATTAATAGATCACACATAAGCGACACATCAAACTACATCGGAGTCACCTAGTGCAG,4890 fluorescence intensity (a.u.)
8,CGCTGACAGCCCGGGCCCACCGGTCGGATCGTGCTGGGTACGGAGTCACCTAGTGCAG,5820 fluorescence intensity (a.u.)
9,CCAGAATTGAAAGGACGATTGGATCAATTAATGGAAGCATCGGAGTCACCTAGTGCAG,38000 fluorescence intensity (a.u.)
10,ATAATATTAATTACTATGTTTCCATTCATGTTCATGCACACGGAGTCACCTAGTGCAG,12100 fluorescence intensity (a.u.)
11,TTTCTAATCACCTTGGATGCATGCTCTGCCGCCACCAACCCGGAGTCACCTAGTGCAG,3600 fluorescence intensity (a.u.)
12,CAGAAATGATGAATGTTGTAACTACACTTCAGAAGGATAGCGGAGTCACCTAGTGCAG,6270 fluorescence intensity (a.u.)
13,AGCAAACATAATTAACATATATATAATAAAGCTCAAAGAGCGGAGTCACCTAGTGCAG,10700 fluorescence intensity (a.u.)
14,AACTATATAATTAGAAACACGAGGATGATAAGATTTGGTCCGGAGTCACCTAGTGCAG,8480 fluorescence intensity (a.u.)
15,CTATAAGATTTATTATGATAATTTATATTATAATAATTGTCGGAGTCACCTAGTGCAG,11000 fluorescence intensity (a.u.)
16,AACATTCATACTAATTGGAAAGGGAGACCGCTCTTTGGGACGGAGTCACCTAGTGCAG,13900 fluorescence intensity (a.u.)
17,CATTTGTTTACCAATCATTACGATGGTTTCTTATCATATTCGGAGTCACCTAGTGCAG,6610 fluorescence intensity (a.u.)
18,TAATTTGACACTACCAATGATTTGGTAGGGCACCAAACCACGGAGTCACCTAGTGCAG,3500 fluorescence intensity (a.u.)
19,ATAAATTAAAACTTAATATGGTAACAGAGCTATAGTCATACGGAGTCACCTAGTGCAG,13500 fluorescence intensity (a.u.)
20,TTGAATTTGAAATTATCAAATTATACCAAATTGTACCTTGCGGAGTCACCTAGTGCAG,22600 fluorescence intensity (a.u.)
21,AATATGATAAAATAGTTGATTATCTACTTAAAAGAGAAGACGGAGTCACCTAGTGCAG,5740 fluorescence intensity (a.u.)

row,Sequence,binding signal
1,CTTGATTTATTGATTGATTAATAAAACATTTTATTTCCAACGGAGTCACCTAGTGCAG,56900 fluorescence intensity (a.u.)
2,ATCACTTTCATTTACAGTTAACTTATTATAAACAGTGTGACGGAGTCACCTAGTGCAG,4640 fluorescence intensity (a.u.)
3,TCTCGCTTCTGCCACTGCTGGCTGTGCTGCTTCCCTAGCTCGGAGTCACCTAGTGCAG,65100 fluorescence intensity (a.u.)
4,TAGTTATAAACTGACGATTTATTATACGTGTCCACACGTGCGGAGTCACCTAGTGCAG,4170 fluorescence intensity (a.u.)
5,TGAAGCTGTGTCAATCTACTGATCCAGGGCTTGATACAGTCGGAGTCACCTAGTGCAG,3590 fluorescence intensity (a.u.)
6,GGTTCATTAGTGGACATAATTAGTACCACCTTGTAAGTAGCGGAGTCACCTAGTGCAG,12200 fluorescence intensity (a.u.)
7,CCGTTGTTTAACCCGTGATTTGAATCTCACCCTACCACGACGGAGTCACCTAGTGCAG,7860 fluorescence intensity (a.u.)
8,GTAGTAGTACTTAATTAGTGATCATGAGTTGCTGACGCTTCGGAGTCACCTAGTGCAG,4260 fluorescence intensity (a.u.)
9,AAGATTTATGATTTTCTTACTAGAGAATTTAGATTTGCGTCGGAGTCACCTAGTGCAG,11000 fluorescence intensity (a.u.)
10,GTAATTAATTTCACTTTATTCTTCTTATAGATTACTACTACGGAGTCACCTAGTGCAG,25300 fluorescence intensity (a.u.)
11,CGCAAACAATTAGCACAACAATTAAATTAACTATATACGGCGGAGTCACCTAGTGCAG,24000 fluorescence intensity (a.u.)
12,GTCTAATCATGGACTAATTAGGCTCAAAAGATTCATCTCGCGGAGTCACCTAGTGCAG,39000 fluorescence intensity (a.u.)
13,TCGTCTCTAATGACATTAATTAACAGAGAGAGCTTATATTCGGAGTCACCTAGTGCAG,8590 fluorescence intensity (a.u.)
14,AACCTCAACCACGTCAATCAAAACGAACACTTTATTAACTCGGAGTCACCTAGTGCAG,6830 fluorescence intensity (a.u.)
15,TATAATTAATATCTAGTCTCACATGTCATACACACATGCACGGAGTCACCTAGTGCAG,18800 fluorescence intensity (a.u.)
16,CATTTTGTTCATTCGGGTTTGATTGTGTCATAGTTCTATACGGAGTCACCTAGTGCAG,3390 fluorescence intensity (a.u.)
17,CCATTGAATTGATCAGATGAACCTGCGTGACTGCTTCACTCGGAGTCACCTAGTGCAG,14800 fluorescence intensity (a.u.)
18,ATAGTTACAATGTAATTACATGCAAGTTATAGTGTAATTACGGAGTCACCTAGTGCAG,6110 fluorescence intensity (a.u.)
19,CGAATCTTTTAATTAAAATTATGATAAGATAAGAGGTACACGGAGTCACCTAGTGCAG,15300 fluorescence intensity (a.u.)
20,TTAGCTATCACAGACACAATCACACAACGATGGTAAAACACGGAGTCACCTAGTGCAG,6740 fluorescence intensity (a.u.)
21,TTAACATGTAATCAATTAAATACTAATTATTATAAACGTGCGGAGTCACCTAGTGCAG,53100 fluorescence intensity (a.u.)

row,Sequence,binding signal
1,AAGGAACAAATTAAACTGAAACCAGTTAATGTACATTTGCCGGAGTCACCTAGTGCAG,8230 fluorescence intensity (a.u.)
2,TAGTAAATGATATCAATTTAGGTGGTGTTCTTTTCTTCTGCGGAGTCACCTAGTGCAG,26600 fluorescence intensity (a.u.)
3,TTTGATTTAATTTGTTCTGCAAACAGTCCGGAAAATGCCTCGGAGTCACCTAGTGCAG,53500 fluorescence intensity (a.u.)
4,ATGATTGTTGAAACAAAATTGCACAATAGACATGAGATTACGGAGTCACCTAGTGCAG,26600 fluorescence intensity (a.u.)
5,ATTAATTTGACCAACTTCATTCAACATGTAACATGGTCTCCGGAGTCACCTAGTGCAG,16600 fluorescence intensity (a.u.)
6,CAAAATGACAGAGTGAGTAGGATAGATGGTACATGAAACACGGAGTCACCTAGTGCAG,3500 fluorescence intensity (a.u.)
7,AATGTTAAATTTGATACTTATTTACTGGGCAGATTAACGCCGGAGTCACCTAGTGCAG,7410 fluorescence intensity (a.u.)
8,AAGATTCTTAATTTCTTTCTATTGCTGTTGATATCTCATACGGAGTCACCTAGTGCAG,5060 fluorescence intensity (a.u.)
9,CTAATTTAATTCGAAGAATGGCGCATGAGTTCGCGTGAAGCGGAGTCACCTAGTGCAG,3570 fluorescence intensity (a.u.)
10,CCTATAATTGAGGCAGATTAAGAACAATAGCACTTGTACACGGAGTCACCTAGTGCAG,29900 fluorescence intensity (a.u.)
11,AAAAGATTAAATTAATCCAATCGAGCTAGCTAAGCAGGTCCGGAGTCACCTAGTGCAG,17700 fluorescence intensity (a.u.)
12,ATCAATTCAAATTTAAATTTTGATGAAACTCTTCGAAATCCGGAGTCACCTAGTGCAG,14400 fluorescence intensity (a.u.)
13,GATGTTGACTGGTGTGTACTGTTTGTTGTGGTGGCTGCAGCGGAGTCACCTAGTGCAG,13400 fluorescence intensity (a.u.)
14,ACTAATGGATATCCAATGAGAAGAGGGAGTACATACACTGCGGAGTCACCTAGTGCAG,12600 fluorescence intensity (a.u.)
15,GTCTAATTAATCTCTAGCTAGCTTAGAATTAGATAAGCTTCGGAGTCACCTAGTGCAG,23500 fluorescence intensity (a.u.)
16,AGGGTTATAATTAGATGGGTAGTGGAGGTAGGTAAGAAAACGGAGTCACCTAGTGCAG,6030 fluorescence intensity (a.u.)
17,ACAAAATCATTTGTACGATGATATTTTATTAAACTTGCACCGGAGTCACCTAGTGCAG,7050 fluorescence intensity (a.u.)
18,CTTACTAAATTGCAATATGCACTGGCGGCGTCGTCAGCACCGGAGTCACCTAGTGCAG,9000 fluorescence intensity (a.u.)
19,CATCTGGTGTCAATTAATTAGATCCAGAGAAAAGGAGAGGCGGAGTCACCTAGTGCAG,18500 fluorescence intensity (a.u.)
20,GTTAAAGATTGGATTCCTGAAGGAGGATATAGCACCAACCCGGAGTCACCTAGTGCAG,6190 fluorescence intensity (a.u.)
21,TTGCTGGAGCGGATTTGATTGGAAGTTCCCAAGTCGAGGTCGGAGTCACCTAGTGCAG,7820 fluorescence intensity (a.u.)
